This is a noisy data set.
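Note: [psi-pin-] Saccharomyces cerevisiae expressing SupN fusions, induced by 100 µM Cu2SO4, selected 7 d at 30 °C without adenine and uracil, scored by deep sequencing of output versus input.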

A short description of the first data set: amyloid nucleation score relative to library mode (yeast Sup35 reporter selection) (log enrichment difference); higher = more amyloid nucleation; sequences are the first 22 residues of the Bri2 peptide extended by up to 12 random residues. Particulars: random library (experiment): 1;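 active = nucleation score significantly above 0 at FDR 0.05; inactive = not significantly above 0 or absent from output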. The procedure: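 Random C-terminal extensions of the 22-aa Bri2 peptide by 12 NNK codons; premature stops give shorter extensions. Peptides were fused to the Sup35 nucleation domain in S. cerevisiae [psi-pin-] and selected on -ADE-URA plates for 7 d at 30 °C. The nucleation score is log(output/input), centred to the mode of each of 3 independent libraries (1 input, 3 technical output replicates), with duplicates merged. Sequences absent from the output ('random_non_nuc') were imputed with the library mode value, so they are given as censored (<). Nucleators are scores significantly >0 at FDR 0.05.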
In the case of EASNCFAIRHFENKFAVETLICAVGTPIPVSSRW, the amyloid nucleation score result was “inactive”.

Sequence EASNCFAIRHFENKFAVETLICAVGVV showed an amyloid nucleation score of -0.309.

In turn, EASNCFAIRHFENKFAVETLICAVKDPWCGDGTV registered an amyloid nucleation score of 2.2.

As for EASNCFAIRHFENKFAVETLICAVKTRSGSTARG, the amyloid nucleation score entry is “inactive”.

As to EASNCFAIRHFENKFAVETLICAVKY, the amyloid nucleation score entry was “inactive”.

EASNCFAIRHFENKFAVETLICAVLARK came in with an amyloid nucleation score of 1.29.

For the sequence EASNCFAIRHFENKFAVETLICAVLIGRVDWVRV, the amyloid nucleation score entry was “inactive”.

As for EASNCFAIRHFENKFAVETLICAVLNDVYISWKR, the amyloid nucleation score result is “inactive”.

Consider EASNCFAIRHFENKFAVETLICAVMGCPY, for which the amyloid nucleation score is 5.09.

For the sequence EASNCFAIRHFENKFAVETLICAVPLTGTVIQLS, the amyloid nucleation score entry is “inactive”.

As for EASNCFAIRHFENKFAVETLICAVPSVS, the amyloid nucleation score result was “inactive”.

As to EASNCFAIRHFENKFAVETLICAVSFVVRRGDCG, the amyloid nucleation score stood at 2.2.

For the sequence EASNCFAIRHFENKFAVETLICAVSVAYLAALVR, the amyloid nucleation score entry is “inactive”.

As for EASNCFAIRHFENKFAVETLICAVSVTW, the amyloid nucleation score entry is “inactive”.

EASNCFAIRHFENKFAVETLICAVV had an amyloid nucleation score of 1.75.

As for EASNCFAIRHFENKFAVETLICAVVAWVMEWKAG, the amyloid nucleation score was -0.444.

As to EASNCFAIRHFENKFAVETLICAVVCWWQCRVTV, the amyloid nucleation score result was “inactive”.

In the case of EASNCFAIRHFENKFAVETLICAVW, the amyloid nucleation score result was “inactive”.

The sequence EASNCFAIRHFENKFAVETLICAVWCKGASVRVR returned an amyloid nucleation score of 1.32.

For EASNCFAIRHFENKFAVETLICAVWDTLHLLV, the amyloid nucleation score entry is “inactive”.

Turning to EASNCFAIRHFENKFAVETLICAVWTVLRYGVNC, the amyloid nucleation score result was “inactive”.

EASNCFAIRHFENKFAVETLICAW: the amyloid nucleation score entry was “inactive”.

EASNCFAIRHFENKFAVETLICAWAQQSEAWGER yielded an amyloid nucleation score of 2.58.

Consider EASNCFAIRHFENKFAVETLICAWCKDAVEVGWL, for which the amyloid nucleation score result is “inactive”.

EASNCFAIRHFENKFAVETLICAWCLEKRVIGAC: the amyloid nucleation score entry is “inactive”.

With EASNCFAIRHFENKFAVETLICAWGDRELVCSYQ, the amyloid nucleation score result is “inactive”.

For the sequence EASNCFAIRHFENKFAVETLICAWHSRACPVGER, the amyloid nucleation score result is “inactive”.

As to EASNCFAIRHFENKFAVETLICAWLNKASEGVWV, the amyloid nucleation score result is “inactive”.

Consider EASNCFAIRHFENKFAVETLICAWLPERMWSRQ, for which the amyloid nucleation score was 5.06.

The sequence EASNCFAIRHFENKFAVETLICAWMFLFLYRGQS came in with an amyloid nucleation score of -0.0572.

For EASNCFAIRHFENKFAVETLICAWMGVMRVFQST, the amyloid nucleation score result is “inactive”.

Consider EASNCFAIRHFENKFAVETLICAWMYLCA, for which the amyloid nucleation score result was “inactive”.

Consider EASNCFAIRHFENKFAVETLICAWRMAERRPVGS, for which the amyloid nucleation score entry was “inactive”.

With EASNCFAIRHFENKFAVETLICAWSRSPWSQALR, the amyloid nucleation score result was “inactive”.

Consider EASNCFAIRHFENKFAVETLICAWTEDKALRLRA, for which the amyloid nucleation score result is “inactive”.

As for EASNCFAIRHFENKFAVETLICAWVDTCVRCQIY, the amyloid nucleation score result is “inactive”.

EASNCFAIRHFENKFAVETLICAWVFTISLWRTV: the amyloid nucleation score entry was “inactive”.

For EASNCFAIRHFENKFAVETLICAWVGPVKPKGRG, the amyloid nucleation score result was “inactive”.

Take EASNCFAIRHFENKFAVETLICAWWKVSQTIVRS: the amyloid nucleation score result is “inactive”.

Sequence EASNCFAIRHFENKFAVETLICAYASNGEKRSWP gave an amyloid nucleation score of 3.24.

EASNCFAIRHFENKFAVETLICAYAVRSVCTTGV: the amyloid nucleation score entry is “inactive”.

Regarding EASNCFAIRHFENKFAVETLICAYCMSNTLMSRV, the amyloid nucleation score entry is “inactive”.

In the case of EASNCFAIRHFENKFAVETLICAYFGSLMAFSNT, the amyloid nucleation score entry is “inactive”.

As for EASNCFAIRHFENKFAVETLICAYKDSKLVSRWL, the amyloid nucleation score entry was “inactive”.

The sequence EASNCFAIRHFENKFAVETLICAYKSL came in with an amyloid nucleation score of 0.492.

The data set is the same for the next values; noted with them: random library (experiment): 2.
As to EASNCFAIRHFENKFAVETLICAVH, the amyloid nucleation score entry was “inactive”.

EASNCFAIRHFENKFAVETLICAVISSMGLHIKW displayed an amyloid nucleation score of 1.06.

For the sequence EASNCFAIRHFENKFAVETLICAVLVILLDSSNE, the amyloid nucleation score result was “inactive”.

As to EASNCFAIRHFENKFAVETLICAVMIRRCSSY, the amyloid nucleation score result is “inactive”.

Regarding EASNCFAIRHFENKFAVETLICAVMSSFIFNFWL, the amyloid nucleation score result is “inactive”.

Sequence EASNCFAIRHFENKFAVETLICAVMWPFDIFR came in with an amyloid nucleation score of 5.26.

Sequence EASNCFAIRHFENKFAVETLICAVNVT returned an amyloid nucleation score of 4.79.

Consider EASNCFAIRHFENKFAVETLICAVNYNMRGGCWY, for which the amyloid nucleation score is 5.67.

Sequence EASNCFAIRHFENKFAVETLICAVRLPSCITPFS displayed an amyloid nucleation score of 4.97.

On to EASNCFAIRHFENKFAVETLICAVSNHVRFLYPV, for which the amyloid nucleation score entry was “inactive”.

EASNCFAIRHFENKFAVETLICAVVIYFYTGYPL: the amyloid nucleation score result is “inactive”.

For EASNCFAIRHFENKFAVETLICAVVIYPVTCLEA, the amyloid nucleation score result is “inactive”.

For EASNCFAIRHFENKFAVETLICAVWESKAYPMCL, the amyloid nucleation score entry is “inactive”.

The sequence EASNCFAIRHFENKFAVETLICAVWFILCFHERS returned an amyloid nucleation score of 0.571.

In the case of EASNCFAIRHFENKFAVETLICAVYCTFV, the amyloid nucleation score entry was “inactive”.

In turn, EASNCFAIRHFENKFAVETLICAVYVCYETNRHR registered an amyloid nucleation score of 2.25.

As for EASNCFAIRHFENKFAVETLICAWNGISC, the amyloid nucleation score was 7.75.

In turn, EASNCFAIRHFENKFAVETLICAWPAPSVYGCGR gave an amyloid nucleation score of 4.58.

Turning to EASNCFAIRHFENKFAVETLICAWRVETDRILAS, the amyloid nucleation score result is “inactive”.

As to EASNCFAIRHFENKFAVETLICAWSM, the amyloid nucleation score worked out at 2.69.

On to EASNCFAIRHFENKFAVETLICAYDRCCLRLSWW, for which the amyloid nucleation score entry is “inactive”.

In turn, EASNCFAIRHFENKFAVETLICAYECRDFVLVCL gave an amyloid nucleation score of 4.02.

As for EASNCFAIRHFENKFAVETLICAYENRWCSVRSQ, the amyloid nucleation score entry is “inactive”.

With EASNCFAIRHFENKFAVETLICAYFELNICVRLC, the amyloid nucleation score came to 3.07.

EASNCFAIRHFENKFAVETLICAYRCSDRSVTVA returned an amyloid nucleation score of -0.604.

The data set is the same for the next values; noted with them: random library (experiment): 3.
Consider EASNCFAIRHFENKFAVETLICAVGTCLGVCLIA, for which the amyloid nucleation score result is “inactive”.

EASNCFAIRHFENKFAVETLICAVGTVDKGRWLF: the amyloid nucleation score entry was “inactive”.

With EASNCFAIRHFENKFAVETLICAVGVRGTRQESE, the amyloid nucleation score entry is “inactive”.

Consider EASNCFAIRHFENKFAVETLICAVISAYTIRLMI, for which the amyloid nucleation score result was “inactive”.

The sequence EASNCFAIRHFENKFAVETLICAVLLGQTRFCGT came in with an amyloid nucleation score of 1.15.

With EASNCFAIRHFENKFAVETLICAVLPQCKRVPLG, the amyloid nucleation score entry was “inactive”.

Take EASNCFAIRHFENKFAVETLICAVLRAHLMGRCS: the amyloid nucleation score result was “inactive”.

EASNCFAIRHFENKFAVETLICAVPGSVADWSCG yielded an amyloid nucleation score of 5.56.

In the case of EASNCFAIRHFENKFAVETLICAVQRSGCGAYVT, the amyloid nucleation score entry is “inactive”.

With EASNCFAIRHFENKFAVETLICAVRGGRVCRWVV, the amyloid nucleation score entry was “inactive”.

Take EASNCFAIRHFENKFAVETLICAVRHRKGNEAKW: the amyloid nucleation score result was “inactive”.

Take EASNCFAIRHFENKFAVETLICAVRMARACDCGR: the amyloid nucleation score entry was “inactive”.

As for EASNCFAIRHFENKFAVETLICAVSYYRQVACRG, the amyloid nucleation score entry is “inactive”.

As for EASNCFAIRHFENKFAVETLICAVWDRGAESATC, the amyloid nucleation score result was “inactive”.

With EASNCFAIRHFENKFAVETLICAVWITSTRRSWS, the amyloid nucleation score stood at 2.29.

On to EASNCFAIRHFENKFAVETLICAVWRRCRSPFGV, for which the amyloid nucleation score is 5.1.

Consider EASNCFAIRHFENKFAVETLICAWFSVLSCARYL, for which the amyloid nucleation score result was “inactive”.

In the case of EASNCFAIRHFENKFAVETLICAWGLHLEDCQMM, the amyloid nucleation score result was “inactive”.

Sequence EASNCFAIRHFENKFAVETLICAWGLLHLATTWR showed an amyloid nucleation score of -0.274.

For the sequence EASNCFAIRHFENKFAVETLICAWVRIRNALRAA, the amyloid nucleation score result is “inactive”.

Turning to EASNCFAIRHFENKFAVETLICAY, the amyloid nucleation score came out at 0.996.

For the sequence EASNCFAIRHFENKFAVETLICAYFATWDDVSA, the amyloid nucleation score entry is “inactive”.

In the case of EASNCFAIRHFENKFAVETLICAYFGMCERKAVS, the amyloid nucleation score result was “inactive”.

In the case of EASNCFAIRHFENKFAVETLICAYHENWPGSRAV, the amyloid nucleation score entry is “inactive”.

In the case of EASNCFAIRHFENKFAVETLICAYLQRLNTRHMA, the amyloid nucleation score entry is “inactive”.

As to EASNCFAIRHFENKFAVETLICAYNKPPPEWCGA, the amyloid nucleation score entry is “inactive”.

Turning to EASNCFAIRHFENKFAVETLICAYPDTMNVRSIL, the amyloid nucleation score entry was “inactive”.

EASNCFAIRHFENKFAVETLICAYPSLEYMFVSK: the amyloid nucleation score was 3.77.

As for EASNCFAIRHFENKFAVETLICAYQSRSD, the amyloid nucleation score entry was “inactive”.

The values are drawn from the supplement of paper PMC12067230.
